The record followed here is the supplement of paper PMC12423691.

The chains are these.
B1: SATB1, Q01826 (protein)
chain: MDHLNEATQGKEHSEMSNNVSDPKGPPAKIARLEQNGSPLGRGRLGSTGAKMQGVPLKHSGHLMKTNLRKGTMLPVFCVVEHYENAIEYDCKEEHAEFVLVRKDMLFNQLIEMALLSLGYSHSSAAQAKGLIQVGKWNPVPLSYVTDAPDATVADMLQDVYHVVTLKIQLHSCPKLEDLPPEQWSHTTVRNALKDLLKDMNQSSLAKECPLSQSMISSIVNSTYYANVSAAKCQEFGRWYKHFKKTKDMMVEMDSLSELSQQGANHVNFGQQPVPGNTAEQPPSPAQLSHGSQPSVRTPLPNLHPGLVSTPISPQLVNQQLVMAQLLNQQYAVNRLLAQQSLNQQYLNHPPPVSRSMNKPLEQQVSTNTEVSSEIYQWVRDELKRAGISQAVFARVAFNRTQGLLSEILRKEEDPKTASQSLLVNLRAMQNFLQLPEAERDRIYQDERERSLNAASAMGPAPLISTPPSRPPQVKTATIATERNGKPENNTMNINASIYDEIQQEMKRAKVSQALFAKVAATKSQGWLCELLRWKEDPSPENRTLWENLSMIRRFLSLPQPERDAIYEQESNAVHHHGDRPPHIIHVPAEQIQQQQQQQQQQQQQQQAPPPPQPQQQPQTGPRLPPRQPTVASPAESDEENRQKTRPRTKISVEALGILQSFIQDVGLYPDEEAIQTLSAQLDLPKYTIIKFFQNQRYYLKHHGKLKDNSGLEVDVAEYKEEELLKDLEESVQDKNTNTLFSVKLEEELSVEGNTDINTDLKD
B2: ETV4, P43268 (protein)
chain: MERRMKAGYLDQQVPYTFSSKSPGNGSLREALIGPLGKLMDPGSLPPLDSEDLFQDLSHFQETWLAEAQVPDSDEQFVPDFHSENLAFHSPTTRIKKEPQSPRTDPALSCSRKPPLPYHHGEQCLYSSAYDPPRQIAIKSPAPGALGQSPLQPFPRAEQRNFLRSSGTSQPHPGHGYLGEHSSVFQQPLDICHSFTSQGGGREPLPAPYQHQLSEPCPPYPQQSFKQEYHDPLYEQAGQPAVDQGGVNGHRYPGAGVVIKQEQTDFAYDSDVTGCASMYLHTEGFSGPSPGDGAMGYGYEKPLRPFPDDVCVVPEKFEGDIKQEGVGAFREGPPYQRRGALQLWQFLVALLDDPTNAHFIAWTGRGMEFKLIEPEEVARLWGIQKNRPAMNYDKLSRSLRYYYEKGIMQKVAGERYVYKFVCEPEALFSLAFPDNQRPALKAEFDRPVSEEDTVPLSHLDESPAYLPELAGPAQPFGPKGGYSY
B3: RBCK1, Q9BYM8 (protein)
chain: MDEKTKKAEEMALSLTRAVAGGDEQVAMKCAIWLAEQRVPLSVQLKPEVSPTQDIRLWVSVEDAQMHTVTIWLTVRPDMTVASLKDMVFLDYGFPPVLQQWVIGQRLARDQETLHSHGVRQNGDSAYLYLLSARNTSLNPQELQRERQLRMLEDLGFKDLTLQPRGPLEPGPPKPGVPQEPGRGQPDAVPEPPPVGWQCPGCTFINKPTRPGCEMCCRARPEAYQVPASYQPDEEERARLAGEEEALRQYQQRKQQQQEGNYLQHVQLDQRSLVLNTEPAECPVCYSVLAPGEAVVLRECLHTFCRECLQGTIRNSQEAEVSCPFIDNTYSCSGKLLEREIKALLTPEDYQRFLDLGISIAENRSAFSYHCKTPDCKGWCFFEDDVNEFTCPVCFHVNCLLCKAIHEQMNCKEYQEDLALRAQNDVAARQTTEMLKVMLQQGEAMRCPQCQIVVQKKDGCDWIRCTVCHTEICWVTKGPRWGPGGPGDTSGGCRCRVNGIPCHPSCQNCH
B4: NKX2-6, A6NCS4 (protein)
chain: MLLSPVTSTPFSVKDILRLERERSCPAASPHPRVRKSPENFQYLRMDAEPRGSEVHNAGGGGGDRKLDGSEPPGGPCEAVLEMDAERMGEPQPGLNAASPLGGGTRVPERGVGNSGDSVRGGRSEQPKARQRRKPRVLFSQAQVLALERRFKQQRYLSAPEREHLASALQLTSTQVKIWFQNRRYKCKRQRQDKSLELAGHPLTPRRVAVPVLVRDGKPCLGPGPGAPAFPSPYSAAVSPYSCYGGYSGAPYGAGYGTCYAGAPSGPAPHTPLASAGFGHGGQNATPQGHLAATLQGVRAW
B5: PELI1, Q96FA3 (protein)
chain: MFSPDQENHPSKAPVKYGELIVLGYNGSLPNGDRGRRKSRFALFKRPKANGVKPSTVHIACTPQAAKAISNKDQHSISYTLSRAQTVVVEYTHDSNTDMFQIGRSTESPIDFVVTDTVPGSQSNSDTQSVQSTISRFACRIICERNPPFTARIYAAGFDSSKNIFLGEKAAKWKTSDGQMDGLTTNGVLVMHPRNGFTEDSKPGIWREISVCGNVFSLRETRSAQQRGKMVEIETNQLQDGSLIDLCGATLLWRTAEGLSHTPTVKHLEALRQEINAARPQCPVGFNTLAFPSMKRKDVVDEKQPWVYLNCGHVHGYHNWGNKEERDGKDRECPMCRSVGPYVPLWLGCEAGFYVDAGPPTHAFSPCGHVCSEKTTAYWSQIPLPHGTHTFHAACPFCAHQLAGEQGYIRLIFQGPLD
B6: ICAM1, P05362 (protein)
chain: MAPSSPRPALPALLVLLGALFPGPGNAQTSVSPSKVILPRGGSVLVTCSTSCDQPKLLGIETPLPKKELLLPGNNRKVYELSNVQEDSQPMCYSNCPDGQSTAKTFLTVYWTPERVELAPLPSWQPVGKNLTLRCQVEGGAPRANLTVVLLRGEKELKREPAVGEPAEVTTTVLVRRDHHGANFSCRTELDLRPQGLELFENTSAPYQLQTFVLPATPPQLVSPRVLEVDTQGTVVCSLDGLFPVSEAQVHLALGDQRLNPTVTYGNDSFSAKASVSVTAEDEGTQRLTCAVILGNQSQETLQTVTIYSFPAPNVILTKPEVSEGTEVTVKCEAHPRAKVTLNGVPAQPLGPRAQLLLKATPEDNGRSFSCSATLEVAGQLIHKNQTRELRVLYGPRLDERDCPGNWTWPENSQQTPMCQAWGNPLPELKCLKDGTFPLPIGESVTVTRDLEGTYLCRARSTQGEVTRKVTVNVLSPRYEIVIITVVAAAVIMGTAGLSTYLYNRQRKIKKYRLQQAQKGTPMKPNTQATPP
B7: KDM5B, Q9UGL1 (protein)
chain: MEAATTLHPGPRPALPLGGPGPLGEFLPPPECPVFEPSWEEFADPFAFIHKIRPIAEQTGICKVRPPPDWQPPFACDVDKLHFTPRIQRLNELEAQTRVKLNFLDQIAKYWELQGSTLKIPHVERKILDLFQLNKLVAEEGGFAVVCKDRKWTKIATKMGFAPGKAVGSHIRGHYERILNPYNLFLSGDSLRCLQKPNLTTDTKDKEYKPHDIPQRQSVQPSETCPPARRAKRMRAEAMNIKIEPEETTEARTHNLRRRMGCPTPKCENEKEMKSSIKQEPIERKDYIVENEKEKPKSRSKKATNAVDLYVCLLCGSGNDEDRLLLCDGCDDSYHTFCLIPPLHDVPKGDWRCPKCLAQECSKPQEAFGFEQAARDYTLRTFGEMADAFKSDYFNMPVHMVPTELVEKEFWRLVSTIEEDVTVEYGADIASKEFGSGFPVRDGKIKLSPEEEEYLDSGWNLNNMPVMEQSVLAHITADICGMKLPWLYVGMCFSSFCWHIEDHWSYSINYLHWGEPKTWYGVPGYAAEQLENVMKKLAPELFVSQPDLLHQLVTIMNPNTLMTHEVPVYRTNQCAGEFVITFPRAYHSGFNQGFNFAEAVNFCTVDWLPLGRQCVEHYRLLHRYCVFSHDEMICKMASKADVLDVVVASTVQKDMAIMIEDEKALRETVRKLGVIDSERMDFELLPDDERQCVKCKTTCFMSAISCSCKPGLLVCLHHVKELCSCPPYKYKLRYRYTLDDLYPMMNALKLRAESYNEWALNVNEALEAKINKKKSLVSFKALIEESEMKKFPDNDLLRHLRLVTQDAEKCASVAQQLLNGKRQTRYRSGGGKSQNQLTVNELRQFVTQLYALPCVLSQTPLLKDLLNRVEDFQQHSQKLLSEETPSAAELQDLLDVSFEFDVELPQLAEMRIRLEQARWLEEVQQACLDPSSLTLDDMRRLIDLGVGLAPYSAVEKAMARLQELLTVSEHWDDKAKSLLKARPRHSLNSLATAVKEIEEIPAYLPNGAALKDSVQRARDWLQDVEGLQAGGRVPVLDTLIELVTRGRSIPVHLNSLPRLETLVAEVQAWKECAVNTFLTENSPYSLLEVLCPRCDIGLLGLKRKQRKLKEPLPNGKKKSTKLESLSDLERALTESKETASAMATLGEARLREMEALQSLRLANEGKLLSPLQDVDIKICLCQKAPAAPMIQCELCRDAFHTSCVAVPSISQGLRIWLCPHCRRSEKPPLEKILPLLASLQRIRVRLPEGDALRYMIERTVNWQHRAQQLLSSGNLKFVQDRVGSGLLYSRWQASAGQVSDTNKVSQPPGTTSFSLPDDWDNRTSYLHSPFSTGRSCIPLHGVSPEVNELLMEAQLLQVSLPEIQELYQTLLAKPSPAQQTDRSSPVRPSSEKNDCCRGKRDGINSLERKLKRRLEREGLSSERWERVKKMRTPKKKKIKLSHPKDMNNFKLERERSYELVRSAETHSLPSDTSYSEQEDSEDEDAICPAVSCLQPEGDEVDWVQCDGSCNQWFHQVCVGVSPEMAEKEDYICVRCTVKDAPSRK
B8: BARHL1, Q9BZE3 (protein)
chain: MEGSNGFGIDSILSHRAGSPALPKGDPLLGDCRSPLELSPRSESSSDCSSPASPGRDCLETGTPRPGGASGPGLDSHLQPGQLSAPAQSRTVTSSFLIRDILADCKPLAACAPYSSSGQPAAPEPGGRLAAKAAEDFRDKLDKSGSNASSDSEYKVKEEGDREISSSRDSPPVRLKKPRKARTAFTDHQLAQLERSFERQKYLSVQDRMELAASLNLTDTQVKTWYQNRRTKWKRQTAVGLELLAEAGNYSALQRMFPSPYFYPQSLVSNLDPGAALYLYRGPSAPPPALQRPLVPRILIHGLQGASEPPPPLPPLAGVLPRAAQPR

The list shows a part of the results. Binding of human transcription factors and regulators to the viral nucleoprotein by AlphaScreen, crude cell-free proteins, amounts not normalised, one pass. Fold of the Venus control; higher = more signal. No active / inactive call. Single-pass screen; sequences are the whole Swiss-Prot entries looked up by name.

The target of the assay is nucleoprotein N of Crimean-Congo hemorrhagic fever virus. The assay can be described thus: AlphaScreen luminescence signal relative to Venus negative control (fold); higher = stronger binding to CCHFV N. The protocol:
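AlphaScreen binding of cell-free made, FLAG-GST-tagged human transcription factors and regulators (crude translation products) to biotinylated N protein; signal as fold of the FLAG-GST-Venus control. One pass.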
In the case of B1, the AlphaScreen luminescence signal came to 1.67.

Consider B2, for which the AlphaScreen luminescence signal is 2.65.

B3 gave an AlphaScreen luminescence signal of 2.23.

In turn, B4 returned an AlphaScreen luminescence signal of 4.93.

For the molecule B5, the AlphaScreen luminescence signal is 2.28.

On to B6, for which the AlphaScreen luminescence signal is 2.37.

B7 gave an AlphaScreen luminescence signal of 3.49.

B8 displayed an AlphaScreen luminescence signal of 3.12.
